From EPA's CvTdb concentration-time database
The source gives many values for each of these; only a part stands here.

Key:
Assay in all cases: concentration in plasma after dosing
Rat [1] = settings: dosed: Oxazepam, 400 mg/kg, oral, Female, F344
Rat [2] = settings: 2 h; dosed: Oxazepam; 20 mg/kg; iv; Male; F344
Rat [3] = settings: 1 h; dosed: Oxazepam; 20 mg/kg; iv; Female; F344
Rat [4] = settings: dosed: Oxazepam, 20 mg/kg, iv, Male, F344
Rat [5] = settings: dosed: Oxazepam, 20 mg/kg, iv, Female, F344
Rat [6] = settings: dosed: Oxazepam, 400 mg/kg, oral, Male, F344
Rat [7] = settings: dosed: Oxazepam, 20 mg/kg, iv, Male, F344; remark: listed apart in the source
Rat [8] = settings: 1 h; dosed: Oxazepam; 20 mg/kg; iv; Male; F344
Rat [9] = settings: 2 h; dosed: Oxazepam; 20 mg/kg; iv; Male; F344; remark: listed apart in the source
Rat [10] = settings: dosed: Oxazepam, 20 mg/kg, iv, Male, F344; remark: listed apart in the source
Rat [11] = settings: dosed: Oxazepam, 400 mg/kg, oral, Male, F344; remark: listed apart in the source
Rat [12] = settings: dosed: Oxazepam, 400 mg/kg, oral, Female, F344; remark: listed apart in the source
Rat [13] = settings: dosed: Oxazepam, 400 mg/kg, oral, Female, F344; remark: listed apart in the source
Rat [14] = settings: dosed: Oxazepam, F344
Rat [15] = settings: dosed: Oxazepam, 400 mg/kg, oral, Male, F344; remark: listed apart in the source
Rat [16] = settings: dosed: Oxazepam, 20 mg/kg, iv, Male, F344; remark: listed apart in the source
Rat [17] = settings: dosed: Oxazepam, 400 mg/kg, oral, Female, F344; remark: listed apart in the source
Rat [18] = settings: dosed: Oxazepam, 20 mg/kg, iv, Female, F344; remark: listed apart in the source
Rat [19] = settings: dosed: Oxazepam, 400 mg/kg, oral, Male, F344; remark: listed apart in the source
Rat [20] = settings: dosed: Oxazepam, 20 mg/kg, iv, Female, F344; remark: listed apart in the source
Rat [21] = settings: dosed: Oxazepam, 20 mg/kg, iv, Female, F344; remark: listed apart in the source
Rat [22] = settings: dosed: Oxazepam, 20 mg/kg, iv, Female, F344; remark: listed apart in the source
Rat [23] = settings: 2 h; dosed: Oxazepam; 20 mg/kg; iv; Female; F344
Rat [24] = settings: dosed: Oxazepam, 20 mg/kg, iv, Male, F344; remark: listed apart in the source
Rat [25] = settings: dosed: Oxazepam, 20 mg/kg, iv, Male, F344; remark: listed apart in the source
Rat [26] = settings: dosed: Oxazepam, 20 mg/kg, iv, Male, F344; remark: listed apart in the source
Rat [27] = settings: dosed: Oxazepam, 400 mg/kg, oral, Female, F344; remark: listed apart in the source
Rat [28] = settings: dosed: Oxazepam, 400 mg/kg, oral, Male, F344; remark: listed apart in the source
Rat [29] = settings: dosed: Oxazepam, 20 mg/kg, iv, Female, F344; remark: listed apart in the source
Rat [30] = settings: dosed: Oxazepam, 400 mg/kg, oral, Female, F344; remark: listed apart in the source
Rat [31] = settings: dosed: Oxazepam, 20 mg/kg, iv, Female, F344; remark: listed apart in the source
Rat [32] = settings: dosed: Oxazepam, 400 mg/kg, oral, Male, F344; remark: listed apart in the source
Rat [33] = settings: dosed: Oxazepam, 20 mg/kg, iv, Female, F344; remark: listed apart in the source

O=C1Nc2ccc(Cl)cc2C(c2ccccc2)=NC1O (centres undefined) [Oxazepam]
Settings	concentration in plasma [ng/mL]
Rat [1], 2 h	3900
Rat [1], 18 h	1820
Rat [4], 1 h	3170
Rat [4], 8 h	300
Rat [5], 2 min	14800
Rat [5], 3 h	2550
Rat [6], 6 h	2950
Rat [6], 20 min	1370
Rat [7], 0.5 h	5030
Rat [7], 6 h	300
Rat [10], 2 min	11100
Rat [10], 3 h	1050
Rat [11], 2 h	3350
Rat [11], 18 h	3420
Rat [12], 2 h	5570
Rat [12], 18 h	9340
Rat [13], 3.5 h	3550
Rat [13], 26 h	5340
Rat [15], 2 h	2950
Rat [15], 18 h	1200
Rat [16], 0.25 h	6750
Rat [16], 4 h	820
Rat [17], 6 h	5930
Rat [17], 20 min	1750
Rat [18], 2 h	4330
Rat [18], 10 h	500
Rat [19], 6 h	2650
Rat [19], 20 min	750
Rat [20], 0.5 h	3670
Rat [20], 6 h	480
Rat [21], 0.25 h	7860
Rat [21], 4 h	1150
Rat [22], 1 h	4840
Rat [22], 8 h	550
Rat [24], 0.25 h	7290
Rat [24], 4 h	520
Rat [25], 2 min	12800
Rat [25], 3 h	1360
Rat [26], 0.5 h	5350
Rat [26], 6 h	280
Rat [27], 3.5 h	4080
Rat [27], 26 h	1660
Rat [28], 3.5 h	4230
Rat [28], 26 h	6680
Rat [29], 0.25 h	7170
Rat [29], 4 h	1800
Rat [30], 6 h	5150
Rat [30], 20 min	1800
Rat [31], 2 min	14700
Rat [31], 3 h	2540
Rat [32], 3.5 h	5210
Rat [32], 26 h	2670
Rat [33], 4 min	8850
Rat [33], 6 h	600

Settings	concentration in plasma [ng/mL]
Rat [2]	1700
Rat [3]	5410
Rat [8]	3620
Rat [9]	860
Rat [23]	3620

concentration in plasma [ng/mL], Rat [14]
Settings	Female	Male
0.25 h, 20 mg/kg, iv	8020	6110
0.5 h, 20 mg/kg, iv	6350	5200
1 h, 20 mg/kg, iv	5900	4380
2 h, 20 mg/kg, iv	3920	1570
2 h, 400 mg/kg, oral	4120	3250
2 min, 20 mg/kg, iv	13600	10800
3 h, 20 mg/kg, iv	1640	1070
3.5 h, 400 mg/kg, oral	3430	3760
4 h, 20 mg/kg, iv	1230	690
6 h, 20 mg/kg, iv	1050	300
6 h, 400 mg/kg, oral	5080	4930
8 h, 20 mg/kg, iv	–	310
10 h, 20 mg/kg, iv	570	–
18 h, 400 mg/kg, oral	2100	2680
20 min, 400 mg/kg, oral	1590	1260
26 h, 400 mg/kg, oral	3730	3160
